The source of these data is the RNAGym collection of RNA variant scans (doi:10.1101/gad.245936.114).

The labels stand for the following.
B1: tRNA (parent)
chain: CUCUCGGUAGCCAAGUUGGUUUAAGGCGCAAGACUUUAAUUUAUCACUACGAAAUCUUGAGAUCGGGCGUUCGACUCGCCCCCGGGAGAUUUUUUCCUCGAGCAA

Variants at the floor of the assay are shown more often than the library holds them.

In this series the parent is B1. Nature of the series: nonsense suppression (GFP-seq) (ratio to wild type); higher = more function; SUP4oc tRNA, yeast GFP reporter sort-seq. The essentials: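 Nonsense suppression (GFPSEQ) is the median GFP/RFP ratio of each sorting bin, weighted by the variant's estimated share of cells in that bin and expressed relative to the unmutated parent tRNA. Yeast strains carried genome-integrated variants of an ochre-suppressor tRNA from a library with ~3% random mutations, plus a galactose-driven GFP ochre reporter and RFP, and were grown in raffinose/galactose medium containing 80 mg/L adenine. Cells were sorted into GFP/RFP bins, each bin was Illumina-sequenced (phred ≥30), and variants were kept only with ≥100 reads and ≥30 cells.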
Turning to G6A C29A G69U, the nonsense suppression was not above 0.026.
Then G32U A54C G65U U71C, with not above 0.026; and C1U C5U A31C, with not above 0.026.
The figure for C29A U57A G73A is not above 0.026.
The figure for U22C A33C is not above 0.026; for C12G A14U A31G G67A C77G it is not above 0.026; for G32C G66U it is not above 0.026.
On to G10C C11U C72A, for which the nonsense suppression was not above 0.026.
The figure for G26C G86C is not above 0.026.
The figure for G59C A62C U71C C82G is not above 0.026; for U17A G67U C72U C77G it is not above 0.026.
The figure for C11A A33G G67A G86A is not above 0.026; for U2C G28U A74U C83A it is not above 0.026.
As to C56U A60U U76A, the nonsense suppression is not above 0.026.
The figure for G10U U16G G88A is not above 0.026; for U22C A24U C34A G66U it is not above 0.026; for G6A C29U A31C U70A C81G A87G it is not above 0.026.
Then U76A G78U, with not above 0.026; and A13U G26C U70C C77A, with not above 0.026; and A62C U63A, with not above 0.026.
Then U8G C72U U76G G88A, with not above 0.026; and G69A C80G, with not above 0.026.
With A14G A74C C77A A87C, the nonsense suppression was not above 0.026.
The figure for C3U G66C G88U is not above 0.026.
The figure for G7A U35C A54G U63G U71A is not above 0.026; for A14U G85U it is not above 0.026.
The figure for C1U C80A is not above 0.026; for U4C A23C it is not above 0.026.
As for G66A A74U, the nonsense suppression is not above 0.026.
With U2A U63C G73A, the nonsense suppression is not above 0.026.
Then C11U C56U U70G A87U, with not above 0.026; and A62U G73A, with not above 0.026; and C29G A54G G67A, with not above 0.026.
Then U20G C29A G78A C83G, with not above 0.026.
Then U35A A54C C80A G88C, with not above 0.026.
Consider C1G C5G, for which the nonsense suppression is not above 0.026.
Then C11G C56G, with not above 0.026.
The figure for A14C A23C is not above 0.026.
On to C56U A89C, for which the nonsense suppression was not above 0.026.
The figure for C3U G25U is not above 0.026.
In the case of A14G A24U U58G, the nonsense suppression is not above 0.026.
The figure for U17G C64A is 0.0364; for C1G U4C G61C it is not above 0.026; for A9U A30G C34G it is not above 0.026.
Take C12A A31G A33G U57A A87G: the nonsense suppression is not above 0.026.
On to C3U G28U, for which the nonsense suppression was not above 0.026.
In the case of U22C C27A G32U U35G G67U C80A, the nonsense suppression is not above 0.026.
Then G66A U70C, with not above 0.026; and G15U U58A U63A, with not above 0.026; and U2A A13C G61A, with not above 0.026.
Then G32A U35A, with not above 0.026; and A33U U35A, with not above 0.026; and U21A A23C U76C C80G G84U, with not above 0.026.
The figure for C3A C27G U71G is not above 0.026; for G6U G15U C82G it is not above 0.026.
On to U8A C79A, for which the nonsense suppression is not above 0.026.
Then A54U G85C, with 0.208.
Turning to C1G U4C A13C U17A U22G G78U, the nonsense suppression is not above 0.026.
Then G6A A33U G59C U76A, with not above 0.026; and G67U G78C, with not above 0.026.
As for G18A A62C U76C, the nonsense suppression is not above 0.026.
Then U20C C64U, with 0.0503; and A14U A31U G65C A74C U76G, with not above 0.026.
Then U2C C5A A33G, with not above 0.026.
Then C3A C5U U17A G66C, with not above 0.026; and U63G G66C, with not above 0.026.
Turning to C12U G32C G67C U70C, the nonsense suppression was not above 0.026.
The figure for U2C C3G C75A A87C is not above 0.026; for A31C A54C it is not above 0.026; for C5G C64A it is not above 0.026.
Then A62G G67A, with not above 0.026; and U17C G26U G85U, with not above 0.026.
As to A31G C75A, the nonsense suppression is 1.06.
The figure for G7U G18C A33G is not above 0.026; for G10C A54G it is not above 0.026.
Then C64A G65A C68G C81U, with not above 0.026.
For G15A U16G G32U G67C, the nonsense suppression was not above 0.026.
The figure for C34A G67C G73A is not above 0.026; for C12A A31U U63A A74U it is not above 0.026.
Then A9C G26U C27U U76C C82U, with not above 0.026; and A9U A33G, with 0.0334.
For the variant A33G A74C C83A, the nonsense suppression is not above 0.026.
U63C G65C: the nonsense suppression was not above 0.026.
The figure for U2G A23C is not above 0.026; for A74C C81U G85C it is not above 0.026; for G15U U58A it is not above 0.026.
Then U20C A87C, with not above 0.026; and A9G C27G G67C G85A, with not above 0.026.
Then U2C C11G U35G U57C, with not above 0.026.
As to C11A A62U, the nonsense suppression was not above 0.026.
On to C12U A14U G73C, for which the nonsense suppression was not above 0.026.
The figure for C11G G66U A74G is not above 0.026.
The figure for A24C G69U is not above 0.026; for G59U C82G it is not above 0.026.
Then C1A A9U G15A C34G U63G, with not above 0.026; and A30U A31U, with 0.035; and C1A A60U, with not above 0.026.
Consider C1G G7A U17C C83A, for which the nonsense suppression is not above 0.026.
Then C11U U21C G73U G88C, with not above 0.026; and G7A U20G G26A, with not above 0.026; and C56A U70G, with not above 0.026.
Then C1U C12A, with not above 0.026.
Then U55C G67U, with not above 0.026; and G25A G88U, with not above 0.026.
On to U21C G66C C82U C83G, for which the nonsense suppression was not above 0.026.
Then U16G G19U G66C, with not above 0.026.
The figure for U22A C29G U57G U63A C75G is not above 0.026; for A54G A89U it is not above 0.026; for A13U A24G it is 0.96.
Then C1A G18C U35G, with not above 0.026.
C11U U21C: the nonsense suppression was not above 0.026.
The figure for U4A C12U is not above 0.026; for U55G G61C A74U G84C it is not above 0.026; for U2G C27U G32C it is not above 0.026.
Then A23G C68U, with 0.182; and U2A A9G A24C G66A, with not above 0.026; and A13U A14U U20A G28C C56A, with not above 0.026.
On to G19A A31C U70C C81G, for which the nonsense suppression was not above 0.026.
Then U2A A9C G66A, with not above 0.026.
Then U17G A54U G61C, with 0.162; and C34A U57C, with not above 0.026.
The figure for U8G U16G U35G C72A is not above 0.026.
As to C3A G32A C72G, the nonsense suppression is not above 0.026.
Then A30U U57C U63A G66C, with not above 0.026.
Then U35G A74U, with not above 0.026; and U63A U70A G73C, with not above 0.026; and C11U C56G G73C G78A C79G, with not above 0.026.
Consider C1U G18A, for which the nonsense suppression was not above 0.026.
As for C12U G25A, the nonsense suppression stood at 1.19.
Consider C1U U55G C83U, for which the nonsense suppression is not above 0.026.
Consider G84C G85A A87C, for which the nonsense suppression is not above 0.026.
As to C29G G32U G84A, the nonsense suppression was not above 0.026.
G15C U22C U63G: the nonsense suppression was not above 0.026.
Then G32U A62G, with not above 0.026; and C5A G19A, with not above 0.026.
As to U8G G28C C56A G69U, the nonsense suppression was not above 0.026.
The figure for U17C U35C U76A is not above 0.026; for U35G C81G C83U it is not above 0.026; for G10C G86A it is not above 0.026.
Then C12U A23U C56A G84C, with not above 0.026; and A14U A23G, with not above 0.026.
Then A62C A87C, with not above 0.026; and C3A C12A A30C G85A, with not above 0.026; and C68U G69A, with not above 0.026.
Regarding U17C A54G A74G, the nonsense suppression is not above 0.026.
The figure for G7C C12G G88A is not above 0.026; for C27U G59A U76C it is not above 0.026; for U17G A31C U71C it is not above 0.026.
For the variant C27G U57A C64A, the nonsense suppression is not above 0.026.
The figure for U22C C77G is not above 0.026; for C12G C82U it is not above 0.026; for A24U C82G it is not above 0.026.
The figure for U55C G78C is not above 0.026; for A14U A33U G73A it is not above 0.026; for U76A C82A A89C it is not above 0.026.
Then A24U C56A G73C, with not above 0.026; and G61U G67A, with 0.135.
Take C34U C68U U70G C72G C75U: the nonsense suppression was not above 0.026.
Then A14G U17G A54G C68U A89U, with not above 0.026; and C3U G86A, with 1.07.
Then U8A A24C G25U G61U C79U G85C, with not above 0.026; and A14U G18U A60G G85U, with not above 0.026; and G26C U63G, with not above 0.026.
The figure for A33G U76C is 0.0419; for C1G U57C G69A G78C it is not above 0.026.
For the variant U58G G66C U71C G78U, the nonsense suppression was not above 0.026.
The figure for U4G A60G C68U is not above 0.026.
